Usually AC50 stands for the concentration giving half of the maximal activity seen.

The other results are listed elsewhere or left out. These are further read-outs of the screen, such as a control signal, another cell line or another target. No call is given for them. The note in brackets gives the kind of curve behind each potency; many fits are weak.
Tags give direction and shape of the fitted curve.

The test in a line: qHTS drug screen for cell cycle checkpoint inhibitors in PARPi-resistant BRCA-mutant ovarian cancer cell lines. (AID 1963452). As to conditions: PEO1/OlaR viability, CellTiter-Glo luminescence, 96 h; measured here: PEO4 viability. The gist of the method:
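PEO1, PEO4 and PEO1/OlaR ovarian cancer cells, 600 per well, exposed 96 h at 37C to a dilution series. Viability read by CellTiter-Glo luminescence, normalized to DMSO and empty wells; activity summarized as Z-AUC.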
A general note: In qHTS, concentration-response curves come from the screen itself.
As for `Cc1ccc(Nc2cc(N[C@@H]3CCCC[C@@H]3N)nnc2C(N)=O)nc1C`, the AC50 was 17.4 µM [falling, single point].
As for `CN(C)C[C@@H]1CCn2cc(c3ccccc32)C2=C(C(=O)NC2=O)c2cn(c3ccccc23)CCO1`, the AC50 is 0.436 µM [falling, partial curve, poor fit].
`CN(C)CCOc1ccc(-c2nc(-c3ccc4c(c3)CC/C4=N\O)c(-c3ccncc3)[nH]2)cc1`: the AC50 was 15.5 µM [falling, single point].
On to `Cc1ccc2cc(-c3c(C)ccc(C(=O)c4c(-c5ccccc5)n(C)n(-c5ccccc5)c4=O)c3N)ccc2n1`, for which the AC50 was 13.8 µM [falling, single point].
Take `C[C@@H](O)[C@@H](C)Oc1nc(Nc2ccc(S(=N)(=O)C3CC3)cc2)ncc1C(F)(F)F` (some centres undefined): the AC50 is 19.5 µM [rising, single point].
Turning to `CN(CCO)C1CCN(c2ccc(Nc3ncc4c5ccnc(F)c5n(C5CCCC5)c4n3)nc2)CC1`, the AC50 was 1.34 µM [falling, partial curve, poor fit].
Consider `CN[C@@H](C)C(=O)N[C@H](C(=O)N1CCC[C@H]1c1nc(C(=O)c2ccc(F)cc2)cs1)C1CCCCC1`, for which the AC50 was 0.871 µM [falling, full curve, poor fit].
To `CCOc1ccc(Cc2cc([C@@H]3O[C@H](CO)[C@@H](O)[C@H](O)[C@H]3O)ccc2Cl)cc1` belongs 0.389 µM [rising, full curve]; to `Cn1cc(-c2ccc(S(=O)(=O)n3ccc(/C=C/C(=O)Nc4ccccc4N)c3)cc2)cn1`, 0.0098 µM [falling, full curve, poor fit].
Regarding `COCCCc1sc(-c2ccccc2)nc1C(=O)Nc1ccccc1-c1nc2cc(CN3CCCC3)cnc2s1`, the AC50 was 4.77 µM [falling, partial curve, poor fit].
Consider `Cc1nnc(C[C@@H]2C=C(c3ccc(Cl)cc3)c3ccccc3-n3c(C)nnc32)o1`, for which the AC50 is 3.09 µM [rising, partial curve, poor fit].
On to `O=C(CCl)Nc1cccc(NC2=NS(=O)(=O)c3ccccc32)c1`, for which the half-maximal activity concentration (AC50) is 24.5 µM [falling, single point].
The same measure for `NS(=O)(=O)c1ccc(Cc2c(-c3cccc(-c4ccccc4)c3)nn(-c3nc(C(=O)O)cs3)c2CC2CC2)cc1`: 17.4 µM [falling, single point]; for `CC(C)c1onc(-c2c(Cl)cccc2Cl)c1COc1ccc(/C=C/c2cccc(C(=O)O)c2)c(Cl)c1`: 24.5 µM [falling, single point]; for `CCOC(=O)C1=CCCCC1S(=O)(=O)Nc1ccc(F)cc1Cl` (centres undefined): 17.4 µM [falling, partial curve, poor fit].
For `O=C(O)c1cn(-c2ccc(F)cc2)c2cc(N3CCNCC3)c(F)cc2c1=O`, the AC50 is 21.9 µM [falling, single point].
For the molecule `CCN(CCCOc1ccc2c(Nc3cc(CC(=O)Nc4cccc(F)c4)[nH]n3)ncnc2c1)CCOP(=O)(O)O`, the AC50 was 0.245 µM [falling, full curve, poor fit].
In the case of `CN1C[C@@H]2c3ccccc3Oc3ccc(Cl)cc3[C@H]2C1`, the AC50 is 17.4 µM [falling, single point].
To `Nc1nc2cc(-c3ccc4ncc(C(=O)N5CCOCC5)n4c3)ccc2o1` belongs 9.77 µM [falling, partial curve, poor fit].
